Experimental data as given in PMC10726135.
This is one part of the list. At the low end of the ranking, values are background and their order means little. Measured with an extract: partners may take part in the binding.

Molecular target: T1, HNF4alpha2 (COS-7 nuclear extract) (UniProt P41235)
T1 sequence: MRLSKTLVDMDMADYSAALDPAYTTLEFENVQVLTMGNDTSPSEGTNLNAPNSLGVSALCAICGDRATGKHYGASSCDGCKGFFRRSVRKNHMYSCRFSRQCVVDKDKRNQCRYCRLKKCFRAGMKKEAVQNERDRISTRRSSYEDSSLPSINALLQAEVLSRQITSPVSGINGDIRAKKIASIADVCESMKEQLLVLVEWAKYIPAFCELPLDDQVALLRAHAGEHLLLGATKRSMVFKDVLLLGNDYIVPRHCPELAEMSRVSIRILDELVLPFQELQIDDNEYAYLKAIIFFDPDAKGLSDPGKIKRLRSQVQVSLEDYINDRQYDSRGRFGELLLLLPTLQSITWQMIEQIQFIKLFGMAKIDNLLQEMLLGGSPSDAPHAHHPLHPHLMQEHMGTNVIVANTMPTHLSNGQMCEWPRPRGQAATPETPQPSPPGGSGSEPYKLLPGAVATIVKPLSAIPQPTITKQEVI
Experiment: protein-binding microarray
Details: COS-7 nuclear extract on double-stranded Agilent 4x180k PBM; binding buffer, salt, pH and temperature not given; high values mean tight binding; double strand, one strand shown; sequences stand for … in …GCCTAGGGAGATTAGAGTATCGGTCGA

Sequence | binding signal (log2 normalized intensity)
CTAAACCTCTGCACACAGGATGTTTTCTCT | -0.0899
GTCACTTCTGCTGCATTCTATTGGTCAAAG | 1.36
CTTGTCTAAAAACATTGTGGAGCTCATGTA | 1.55
TTTTCTTTTGGCATCTGTTGCTCAAGGAGG | 1.36
AGGAGGGGACTTCAAAGGCTCCCCTAATCC | -1.08
AAGGCAGGCAGCATGGAATGACTTTGGGGA | -1.16
GAAGGGAAGCTCTGGGAGTGCCCTTGCCGA | -0.979
TTTGGGAACCGTTAGCAACCGGAAGTGGCT | -1.01
AGCGAGTAAGGCCCGTGAGATTGAAAGCTA | -1.15
TAACTCCCCCTTCATCTGGGACGTGGCTCA | 1.38
TATCAGTATCAATGAGATCTCCCCACATTC | 1.39
GAGGAATTTGGACTTTTACTCTTAGAGATA | 2.95
CCCCCTGTGATTACTTCCACTCTTGCAGAT | -0.136
TATCTTCTGCTTTCAAAGCTCCAGTTCCAG | -1.14
AAAGATGTTTAAATAGTGATAATGGATGGC | 1.11
TGAGATACCACGTATCTTTCAGATCCCTTG | -0.867
GCTATGATTGCGCCACTGCATTCCAGCCTG | -1.07
TGGATTCGCCCAGCATAGCACACCAGCTCT | -1.2
CCAGTTATTCATGTCCCTACCACATACAGA | 1.09
CCTGTCACCTCCCTCAGAGCTCAGATGAAC | 0.177
CAATCCCCCATCTATTTACAAAAGACCAGA | 2.42
CCCTTCTGTCAAGTCCAAAGTTCTTGGCCA | 3.18
CTTTAAGTAGGCACTATTATCCCCCTATCC | 3.5
GGATTAAAGAATTCGTCCAGGGCCGCCCAA | -1.08

Sequence | binding signal (log2 normalized intensity)
GCTCTGCTACTGACCAGATGTTATTACTTA | 0.359
CCACCTGCCCCAGGAATGCCTTTTCTTTCA | 1.43
ATTACTGAAGTTCCAGAGCCTTCAAAGGAA | -0.96
TGATCTGGTTTTTGTTGTTGAGCAAATCAT | 1.75
CAGTCACTCATGAGCCATCCTGAACAAATG | -1.12
AAGCCACAGAGATCAGAATCATAAAGCAGG | -1.03
AATTAAGGAGATTTGGCTTTGAATTCCACT | -1.22
AAGTTAACCCCATCACCCATGTGCAGGCAA | 2.31
CTCTGGCCAGAGAGATGTCAGCCCAAGATA | 3.01
AAAAACACTCAGTTAATTATGGTAGAGCTA | -1.18
GGAGGGTGAAGGTCACAATTTCCAGGAGTA | 2.13
AATTCTCATTCATCCAAGGACTTTGTAATC | 3.2
GCCACTGGTTAGTTCCAAAGGACAAATCTC | 1.11
TGCTGATTACATAGGAGGCTGCCTCTCTGT | -1.02
CGAAATGGGGATAAACACCCCCATCTATGC | 1.3
CCTCTCTCTCTCTCTCTCACACACACACAC | 2.09
ACATTTTACAACCTATTCTCTCTGAGGGCT | -1.12
AGGTAAGTACCAATATTTGTTAAGTACCCA | -0.115
GAGCTCAAATGACAGAACAGTCCAGAGATT | -1.12
AAGGATTAGCAGATAAATCTAGGCCTAGGC | -1.19
AATCCTGGATTCCTCCAGCCCTCCTCTCTG | -0.331
TGTGGGCCTCACACCCTCTAGGGTAGATAA | -0.451
CAAACACTCATTTCACATTGGTGCCCTTTG | 3.72
TAGGCCACCTGTGTCAACATGGACTTTGTT | 5.86

Sequence | binding signal (log2 normalized intensity)
TCCTTCACTAAAGTTACAAGATCTTTGGAC | 3
GATAACCTCAAAGAGCATGGCGCCAGGGAG | -1.02
ATCCTGAAAACAAATAGAGCAGACTATTAT | -1.04
GTAGAGCTTATCAAGGCAACTTTGGGCCAA | -1.16
TGTCTCTGGTTGAAGGGGAGGTTATCTTGG | 1.78
ATCTTCTTACCCCTTTGCTGATTACCTCAA | 1.48
CCCAAGCTGTTATTCCAGGCACAAGAATGG | -1.1
AATATTCTGGCTTCTCGTGAGTATTTTTTC | 0.954
AGAATGGGCCAAGCTTAGGAATTCCAAGAA | -1.11
ATTCTAATCCTCTGGTCTTTGCCCCAGCTC | 3.3
AGCACACACGAGCTGTGCGCTTAGTCCATG | -1.19
CCCTCACTGAATATGTTCGGGAGACATGTG | 1.79
GCCTGGTCCGCCCTTCCCCGCTCTCCCCGC | 3.94
CATGTAACCAAAATGCCAATAGTGGCTTTG | -1.11
AAGGACACAACAGAATGTGACTGCCCTCTC | 2.24
GGGGGAGGTGCAGAGAGGGGCAGGGTTCAC | 1.57
TGGATTGTACTGTGTCTTGATCTTGCAACT | 1.74
TTTGAGTCATTGAGGCTTTGCCTTAGGATT | -0.162
AATTCCTGCTGGGCGTGAACTGTGACTTTT | 2.12
GAAGCTCTGGGAGTGCCCTTGCCGAGAGCG | -1.16
ACAGTCCACAGAAACGCAGTCCTGAAAACA | -1.21
AACAGTGGCTGGCCATGAGTGAGCACTTAA | -1.13
TAGGGGGCAATTTCCCTGGTCGACCTCCCC | 2.79
AACTTTTTCCTTTTCTTATCTGTTCACAGT | 1.76
